# Reference: PubChem BioAssay AID686971 (National Center for Advancing Translational Sciences (NCATS), 2013)
# Out of some 360,000 compounds screened, about 7,500 (2.1%) were called active. Inconclusive results, whose numbers are uncertain, are shown with a selection of clear calls. Calls come from the whole dose curve; as a rule, active = well fitted cell-killing curve with a large enough effect; inconclusive = small, poorly fitted or top-dose-only effect, or effect the other way, or another doubt; inactive = no such curve, though single readings can be large or run the other way. Potencies of inconclusive entries are left out as doubtful fits.
# Test: qHTS for induction of synthetic lethality in tumor cells producing 2HG: qHTS for the HT-1080-IDH1KD cell line;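 for activity, negative = toxicity: 0% = DMSO wells and -100% = cell-free medium wells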
# Conditions: HT-1080 IDH1 knockdown viability, ATP luminescence, 48 h; activity, negative = toxicity: at 46.1 µM (top of the series) unless noted
# Procedure, shortened: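 % activity derives from luminescence (CellTiter-Glo), normalised to DMSO and no-cell wells. HT-1080-IDH1KD cells, 750/well, had 48 h compound exposure at 37 °C.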
# Potency is the fitted concentration of half-maximal effect; tags give direction and shape of the fitted curve.
SMILES,Potency,"activity, negative = toxicity"
CC(C)(C)c1ccc(C(=O)N/N=C/c2ccccn2)cc1,"inconclusive [cytotoxic, full curve, poor fit]",
Cc1cc(C(=O)N2CCC(C(N)=O)CC2)c(C)o1,,inactive: 1.43%
OC(COC(c1ccccc1)c1ccccc1)CN1CCN(c2cccc(Cl)c2)CC1 (stereo unspecified),"inconclusive [cytotoxic, single point]",
Cc1ccc(CSc2nnc(-c3cccc(S(=O)(=O)N4CCOCC4)c3)n2C2CCCC2)cc1,"inconclusive [cytotoxic, single point]",
Cc1ccc(Cl)cc1N1CCN(C(=O)COc2ccc3c(c2)CCC3)CC1,"inconclusive [cytotoxic, single point]",
Cc1ccc(-c2nc3ccccc3[nH]2)cc1N,"inconclusive [cytotoxic, partial curve, poor fit]",
COc1ccc(C(=O)NNC(=S)NC(=O)c2ccccc2)cc1,"inconclusive [cytotoxic, partial curve]",
N#CC1(Nc2ccc(S(N)(=O)=O)cc2)CCCC1,"inconclusive [cytotoxic, single point]",
CC(C)N1CC(C(=O)Nc2ccc(C#N)cc2)CC1=O (stereo unspecified),,inactive: 7.01%
CN(C(=O)c1cccc(NC(=O)Cc2ccc(NC(=O)C3CCN(C(=O)C4CCCCC4)CC3)cc2)c1)C1CCCCC1,"inconclusive [cytotoxic, partial curve]",
CC1CCCCN1CC(O)COCCC12CC3CC(CC(C3)C1)C2 (stereo unspecified),"inconclusive [cytotoxic, single point]",
CC(=O)Nc1ccc(S(=O)(=O)N2CCC(NC(=O)c3ccccc3)CC2)cc1,"inconclusive [cytotoxic, single point]",
Cc1[nH]c2ccccc2c1C(=O)C(=O)N1CCCc2ccccc21,"inconclusive [cytotoxic, single point]",
COc1cccc(C(O)c2nc(-c3cc4ccccc4o3)cs2)c1 (stereo unspecified),"inconclusive [cytotoxic, single point]",
CCCCCCN1C[C@@H](n2cc(C3CC3)nn2)[C@H](O)C[C@@H]1c1ccc(Cl)cc1,,inactive: -0.518%
COc1ccc(C2NC(=O)NC(C)=C2C(=O)OCc2ccc3c(c2)OCO3)cc1OC (stereo unspecified),"inconclusive [cytotoxic, single point]",
CCOC(=O)c1c(C)oc2c1c(C=NCCC(=O)O)c(O)c1ccccc12,"inconclusive [cytotoxic, partial curve]",
O=C(c1cc2sccc2n1Cc1ccccc1)N1CCN(c2nc3ccccc3s2)CC1,active: 8.2 µM,
O=C(Nc1ccc([N+](=O)[O-])cc1)Nc1nc(-c2ccc(Cl)s2)cs1,active: 7.31 µM,
O=C(CNC(=O)C1COc2ccccc2O1)N/N=C/c1ccc(O)cc1O (stereo unspecified),"inconclusive [cytotoxic, partial curve]",
Nn1c(Cc2cccc3ccccc23)nnc1SCc1ccc(Cl)c(Cl)c1,"inconclusive [cytotoxic, single point]",
C/C=C/c1ccc(OCCCCN2CC(C)CC(C)C2)c(OC)c1 (stereo unspecified),active: 20.6 µM,
OC(COc1ccc2c(c1)CCC2)Cn1cnc2ccccc21 (stereo unspecified),,inactive: -26.4%
OC(c1cc(Cl)cc(Cl)c1)c1ncc(-c2cccc(F)c2)[nH]1 (stereo unspecified),"inconclusive [cytotoxic, single point]",

SMILES,Potency,"activity, negative = toxicity"
Cc1ccc(O)c(/C=N/NC(=O)COc2ccc3c(C)cc(=O)oc3c2)c1,"inconclusive [cytotoxic, full curve]",
COc1ccc(CCNC(=O)Cn2c(=O)cnc3ccccc32)cc1,"inconclusive [cytotoxic, single point]",
CCCc1nc2cc3c(cc2[nH]1)n(C)c(=O)n3C,"inconclusive [rising, single point]",
O=S(=O)(c1ccccc1F)N1CCN(Cc2cc3c(cc2Br)OCCO3)CC1,,inactive: 1.58%
CC(Oc1ccc(Cl)cc1Cl)C(=O)Nc1ccncc1 (stereo unspecified),"inconclusive [cytotoxic, single point]",
O=C(Nc1ccc(Cl)c(Cl)c1)OCc1cnc(Cl)s1,"inconclusive [cytotoxic, single point]",
CC(=O)N1N=C2c3ccccc3CCC2C1c1ccc(F)cc1 (stereo unspecified),active: 20.6 µM,
CC(=O)c1cccc(-c2ccnc3c2CC(C(=O)Nc2ccc(Cl)cc2)O3)c1 (stereo unspecified),active: 16.4 µM,
COc1ccc(/C(C)=N/Nc2nc3ccccc3nc2C)cc1,"inconclusive [cytotoxic, single point]",
COc1ccc(NC(=O)CN2C(=O)NC3(CCCCCC3)C2=O)cc1Cl,,inconclusive: -32.9% [cytotoxic]
Nc1nc2ccccc2cc1C(=O)NCc1ccc(-c2ccccc2)cc1,active: 1.3 µM,
CN(C)c1ccc(NC2=C([N+](=O)[O-])CS(=O)(=O)C2)cc1,"inconclusive [cytotoxic, single point]",
COc1ccc(NC(=O)Nc2nc(C(N)CC(C)C)cs2)cc1 (stereo unspecified),"inconclusive [cytotoxic, single point]",
O=C(O)c1ccc(N/N=C/c2cc3c(cc2[N+](=O)[O-])OCO3)cc1,"inconclusive [cytotoxic, single point]",
CCOc1ccc(NC(=O)Cn2nnc(C(=O)NCc3cccs3)c2N)cc1,"inconclusive [cytotoxic, single point]",
COc1cc2c(C#N)c(N3CCCCC3)nc(N)c2c(N)n1,"inconclusive [cytotoxic, single point]",
CN(CC(=O)N1CCN(Cc2ccccc2)CC1)S(=O)(=O)c1cccc2nsnc12,,inactive: 5.18%
Cc1cn([C@H]2C[C@H](O)[C@@H](/C=C/C(=O)NCCc3ccc4ccccc4c3)O2)c(=O)[nH]c1=O,,inactive: 6.51%
COc1cc2c(cc1OC)C(C)N(CCc1ccc(Cl)cc1)CC2 (stereo unspecified),"inconclusive [cytotoxic, partial curve]",
COCCCNC(=O)C[C@@H]1C[C@@]2(C(=O)OC)CCCCC=C2N(Cc2ccc3c(c2)OCO3)C1=O,,inactive: 27.5%
COc1cc2nc(C3CCC3)n(NC(=O)C3CCCC(OC)C3)c(=O)c2cc1OC (stereo unspecified),,inactive: -3.1%
O=C1C=C(c2ccccc2)C(=O)N1Nc1ccccc1,"inconclusive [cytotoxic, single point]",
O=C(O)c1ccccc1-c1ccccc1C(=O)Nc1ccc2c(c1)C(O)c1ccccc1-2 (stereo unspecified),,inactive: 3.68%
CCOC(=O)C1(CC2CC2)CCN(Cc2cnc(-c3ccc(OC)cc3)nc2)CC1,"inconclusive [cytotoxic, single point]",

SMILES,Potency,"activity, negative = toxicity"
O=C1CCc2cc(S(=O)(=O)N3CCCC3C(=O)N3CCN(c4ccccc4)CC3)ccc2N1 (stereo unspecified),,inactive: 1.16%
Cc1c(Cl)c([N+](=O)[O-])nn1CCCC(=O)Nc1cc(Oc2ccccc2)cc([N+](=O)[O-])c1,,inactive: -0.156%
CCOC(=O)c1ccc(S(=O)(=O)Nc2cc(S(=O)(=O)N3CCOCC3)ccc2O)cc1,,inactive: 0.599%
O=C(CN1CCN(S(=O)(=O)N2CCCCC2)CC1)Nc1cc(Cl)cc(Cl)c1,,inactive: -14.9%
COc1ccc(NS(=O)(=O)c2ccc(NC(=S)NC(=O)CC(C)C)cc2)cc1,"inconclusive [cytotoxic, partial curve]",
COc1ccc(OCC(O)Cn2c(Br)nc3c2c(=O)[nH]c(=O)n3C)cc1 (stereo unspecified),"inconclusive [cytotoxic, single point]",
CC1=C(C(=O)OCc2ccc3c(c2)OCO3)C(c2ccccc2)NC(=O)N1 (stereo unspecified),"inconclusive [cytotoxic, partial curve]",
CCNC(=S)NNC(=O)c1ccc(=O)n(Cc2ccccc2)c1,"inconclusive [rising, single point]",
CCCCCC(=O)Nc1ccc(N2CCN(CC)CC2)c(Cl)c1,,inconclusive: -36.9% [cytotoxic]
COc1ccc(N2CCN(C(=O)c3ccc(SC)cc3OC)CC2)cc1,,inactive: -10.7%
O=C1N/C(=C/c2cccn2-c2ccc(F)cc2)C(=O)N1Cc1ccccc1,"inconclusive [cytotoxic, single point]",
Cc1cc(C)c(S(=O)(=O)N(C)CC(=O)NC2CCCC2)c(C)c1,,inconclusive: 31.5%
Cc1ccc(-c2noc(CNCCCN(C)C)n2)cc1,,inactive: 16.4%
COc1ccc(-c2cccc(NC(=O)c3ccc4c(c3)OCO4)c2)nn1,,inactive: 1.53%
c1ccc(COc2cccc(-c3cc4nc(NCc5cccs5)ccn4n3)c2)cc1,active: 7.31 µM,
CCOC(=O)COc1cccc2c(=O)n(CC(=O)NCc3ccccc3)ccc12,active: 0.461 µM,
Cc1[nH]nc2c1C(c1ccsc1C)C(C#N)=C(N)O2 (stereo unspecified),"inconclusive [cytotoxic, single point]",
Cn1c(/C=N/NC(=O)c2ccccc2Br)nc2ccccc21,"inconclusive [cytotoxic, single point]",
Cc1cccc(CCNC(=O)CNS(=O)(=O)c2ccc3nc(C)sc3c2)c1,,inactive: 2.92%
COc1ccc(C(=O)Nc2ccc(C3CC3(Cl)Cl)cc2)cc1 (stereo unspecified),"inconclusive [cytotoxic, partial curve]",
COc1cccc(-c2cc(C(=O)Nc3c(C)nn(Cc4ccccc4)c3C)no2)c1,"inconclusive [cytotoxic, single point]",
O=C1CSc2ccc(C(=O)NCCc3ccc(Cl)cc3Cl)cc2N1,"inconclusive [cytotoxic, single point]",
O=C(COC(=O)CCN1C(=O)C2CC=CCC2C1=O)Nc1ccc([N+](=O)[O-])cc1 (stereo unspecified),,inactive: 0%
